# Experimental data reported in PubChem BioAssay AID1460 (National Center for Advancing Translational Sciences (NCATS), 2008).
# In all, about 270,000 compounds went through this assay and about 5,800 (2.1%) were called active. Inconclusive means that the source gave no clear call. Such entries were picked first, then a sample of the others. Calls follow the shape of the dose curve; as a rule, active = well fitted inhibition curve with a large enough effect; inconclusive = small, poorly fitted or top-dose-only effect; inactive = flat fitted curve, though single readings scatter. Potencies beside an inconclusive call are fits to weak or partial responses and may not hold up.
# Target: Microtubule-associated protein tau (Homo sapiens) (UniProt P10636)
# Test: qHTS for Inhibitors of Tau Fibril Formation, Thioflavin T Binding; also: nearly all actives have a fitted effect of over 55% in size
# Settings: recombinant tau K18 P301L, heparin-induced fibrillization, ThT fluorescence; series mostly up to 57.4 µM
# Summary of the method: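 Fibril formation assay: tau K18 P301L at 15 uM with trace Alexa 594 label, heparin inducer 20 uM, pH 7 sodium acetate buffer, 37 C for 6 hr; endpoint ThT signal.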
# % is scaled to controls: 0 for no effect and ±100 for the full control effect; potency is read from the fitted curve at half-maximal effect; tags tell the direction and shape of the fitted curve.
# Chain of UniProt P10636 (P10636 whole entry, looked up): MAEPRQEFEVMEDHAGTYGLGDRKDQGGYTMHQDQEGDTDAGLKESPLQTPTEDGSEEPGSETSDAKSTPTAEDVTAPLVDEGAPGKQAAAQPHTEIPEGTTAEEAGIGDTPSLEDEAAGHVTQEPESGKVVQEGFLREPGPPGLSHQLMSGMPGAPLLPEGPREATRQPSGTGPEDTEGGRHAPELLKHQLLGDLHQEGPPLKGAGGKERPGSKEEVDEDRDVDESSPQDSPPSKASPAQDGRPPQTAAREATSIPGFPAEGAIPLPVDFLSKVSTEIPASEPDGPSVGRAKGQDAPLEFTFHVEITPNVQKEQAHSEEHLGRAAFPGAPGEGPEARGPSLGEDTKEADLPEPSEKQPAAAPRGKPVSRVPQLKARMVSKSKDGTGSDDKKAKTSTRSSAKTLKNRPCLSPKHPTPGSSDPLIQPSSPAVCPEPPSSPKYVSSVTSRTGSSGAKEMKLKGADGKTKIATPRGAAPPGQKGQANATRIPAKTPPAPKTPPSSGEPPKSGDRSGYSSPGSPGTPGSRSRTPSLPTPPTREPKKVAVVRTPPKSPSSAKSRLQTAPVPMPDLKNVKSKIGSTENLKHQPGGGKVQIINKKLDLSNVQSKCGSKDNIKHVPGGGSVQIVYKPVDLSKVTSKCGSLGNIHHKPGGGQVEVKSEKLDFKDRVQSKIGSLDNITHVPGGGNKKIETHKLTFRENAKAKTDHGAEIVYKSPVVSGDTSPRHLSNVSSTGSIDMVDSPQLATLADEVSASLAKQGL
Structure (SMILES),Potency,"activity, negative = inhibition"
Clc1ccc(CSc2nncn3c2cc2occc23)cc1,"inconclusive: 25.1 µM [inhibitor, partial curve]",
CCCCC(=O)Nc1ccc(C(=O)Nc2ccc(OC)cc2[N+](=O)[O-])cc1,"inconclusive: 2.51 µM [inhibitor, full curve]",
CCN(CC)c1ccc(/C=C(\C#N)c2nc(-c3cccs3)c(NC(C)=O)s2)cc1,"inconclusive: 8.91 µM [inhibitor, partial curve]",
CCOC(=O)c1c(NC(=O)C(C)Sc2cn(CCNC(=O)c3ccc(OCC)cc3)c3ccccc23)sc2c1CCC2 (stereo not given),"inconclusive: 2.24 µM [inhibitor, full curve, poor fit]",
COC(=O)[C@@]1(Cc2ccc(OC)cc2)[C@H]2c3cc(C(=O)N4CCCC4)n(Cc4ccccn4)c3C[C@H]2CN1C(=O)c1ccccc1,"inconclusive: 25.1 µM [inhibitor, partial curve]",
CCOC(=O)C1CCN(C(=O)COc2ccc(Br)cc2Br)CC1,inactive,
Cc1cccc(N2CCN(C(=O)c3cnn(-c4ccccc4)c3C3CCN(C(=O)OC(C)(C)C)CC3)CC2)c1C,"inconclusive: 25.1 µM [inhibitor, single point]",
CCc1nc2nc(C)cc(Nc3cc(C)ccc3C)n2n1,inactive,
Cc1cc(C)cc(N=c2c([N+](=O)[O-])nn(-c3cccc(Cl)c3)n2O)c1,"inconclusive: 14.1 µM [inhibitor, partial curve]",
CN1CCc2c(sc3c2C(=O)NC(c2ccco2)N3)C1 (stereo not given),"inconclusive: 28.2 µM [inhibitor, partial curve]",
COCCn1ccc2c(OCC(=O)Nc3cccc(C(F)(F)F)c3)cccc2c1=O,"inconclusive: 39.8 µM [inhibitor, single point]",
CCOC(=O)C1=C(N)OC2=C(C(=O)CCC2)C1c1cccs1 (stereo not given),inactive,
CCOC(=O)/C(=C\C=C1/Sc2ccccc2N1CC)C(C)=O,"inconclusive: 6.31 µM [inhibitor, partial curve]",
O=C(Nc1nnc(SCc2ccccc2)s1)c1cccc([N+](=O)[O-])c1,"inconclusive: 14.1 µM [inhibitor, partial curve]",
CCOC(=O)C1(CCCc2ccccc2)CCN(C(=O)c2ccoc2)CC1,inactive,
CC(C)(C)N1C(=O)[C@H]2[C@@H]3[C@H](O)C=CC(=O)[C@H]3CC[C@H]2C1=O,,inactive: -12.7% [at 11.5 µM]
COc1ccc2sc(N(Cc3cccnc3)C(=O)CCc3ccccc3)nc2c1,"inconclusive: 31.6 µM [inhibitor, single point]",
Cc1cc(N2CCOCC2)ccc1/C=C1\SC(=O)N(C(C)C)C1=O,"inconclusive: 14.1 µM [inhibitor, partial curve]",
CCCN1CCCc2cc(CN(CCCN3CCOCC3)C(=O)Nc3ccc(Cl)c(Cl)c3)ccc21,"inconclusive: 39.8 µM [inhibitor, single point]",
Cc1cccc2[nH]c3c(N4CC=C(c5ccc(F)cc5)CC4)ncnc3c12,"inconclusive: 12.6 µM [inhibitor, partial curve]",

Structure (SMILES),Potency,"activity, negative = inhibition"
COc1ccc(CNC(=O)C(=O)NCC(c2cccnc2)N2CCN(c3ccccc3)CC2)cc1 (stereo not given),inactive,
COC(=O)c1ccc(-n2c(C)cc(C(=O)COC(=O)CC3Sc4ccccc4NC3=O)c2C)cc1 (stereo not given),"inconclusive: 7.94 µM [inhibitor, full curve]",
CCCN1C(=O)/C(=C\C=C2/Sc3ccccc3N2CCO)SC1=S,"inconclusive: 0.355 µM [inhibitor, full curve, poor fit]",
CCOC(=O)N1CCC(N(CCN(C)C)C(=S)Nc2ccc(Oc3ccccc3)cc2)CC1,"inconclusive: 3.98 µM [inhibitor, full curve, poor fit]",
Cc1ccc(NC(=S)NNC(=O)c2ccccc2O)c(C)c1,"inconclusive: 14.1 µM [inhibitor, partial curve]",
CC(=O)Nc1ccc(Cc2ccc3[nH]c(=O)cc(C)c3c2)cc1,inactive,
Cc1ccc(C(=O)O)cc1NC(=S)NC(=O)c1ccc([N+](=O)[O-])cc1Cl,"inconclusive: 25.1 µM [inhibitor, single point]",
C/C(CCN1CCc2nc(-c3ccccc3)c(-c3ccccc3)cc2C1)=N\O[C@H](C)c1cn([C@H](CO)Cc2ccccc2)nn1,"inconclusive: 22.4 µM [inhibitor, partial curve, poor fit]",
Cc1ccc2c(c1)C(c1ccncc1)=NNC(c1ccccc1)=N2,"inconclusive: 39.8 µM [inhibitor, partial curve]",
CCOC(=O)C1(CCOc2ccccc2)CCN(Cc2ccc(C)o2)CC1,inactive,
CN(C)c1ccc(/C=C2\SC(=O)N(CCc3nnc(N)s3)C2=O)cc1,"inconclusive: 0.891 µM [inhibitor, full curve]",
CC(=O)c1ccc(N2CCC(c3cc(-c4ccc(Cl)cc4Cl)n[nH]3)CC2)c([N+](=O)[O-])c1,active: 12.6 µM,
CC1(C)CC(=O)c2cc(-c3nc(-c4ccc(F)cc4)cs3)c(=O)[nH]c2C1,inactive,
Cc1c(/C=N/NC(=O)c2cccnc2)c2ccccn2c1C(=O)c1ccc(F)cc1,"inconclusive: 25.1 µM [inhibitor, partial curve]",
O=c1cc(/C=C/c2c(F)cccc2Cl)[nH]c2ccccc12,"inconclusive: 4.47 µM [inhibitor, partial curve, poor fit]",
Nc1ncc(-c2ccc([N+](=O)[O-])cc2)cn1,"inconclusive: 8.91 µM [inhibitor, partial curve]",
Cc1ccc(OCCC(=O)NCCc2ccc(S(N)(=O)=O)cc2)cc1,inactive,
CCOC(=O)N1CCN(C(=O)CSCc2nc(-c3ccccc3F)oc2C)CC1,"inconclusive: 31.6 µM [inhibitor, single point]",
O=C(Nc1ccc(Cl)c(Cl)c1)Nc1ccccc1O,"inconclusive: 15.8 µM [inhibitor, partial curve]",
COc1ccc(C(NC(=O)c2ccc(=O)[nH]c2)C(=O)Nc2ccc(C(C)C)cc2)cc1 (stereo not given),"inconclusive: 39.8 µM [inhibitor, single point]",
